IFI data for 61 compounds are collected here from ChEMBL document CHEMBL1156829.

The full ranking holds about 5,400 compounds; the median of “IFI” is about 2, and the highest 2% start at about 22. Some of the results follow.

The assay is described as follows: NOVARTIS: Inhibition Frequency Index (IFI) - the number of HTS assays where a compound showed > 50% inhibition/induction, expressed as a percentage of the number of assays in which the compound was tested. Format: functional.
`CCOC(=O)C1=C(C)NC2=C(C(=O)CC(c3ccc(OC)c(OC)c3)C2)C1c1ccc(F)cc1` (stereo unspecified): the IFI came to 8.33%. For the compound `CCC(C)CNC(=O)c1ccc(OC2CCN(CC3CCCCC3)CC2)c(Cl)c1` (stereo unspecified), the IFI turned out to be 2.78%. As for `CCN1/C(=C/C=C/c2oc3ccc4ccccc4c3[n+]2CC)Oc2ccc3ccccc3c21`, the IFI was 19.7%. For `CCNC(=O)N1CCN(CCN(C/C=C/c2ccccc2OC)C(=O)CC(C)CC(C)(C)C)CC1` (stereo unspecified) the value was 2.54%; for `COCCCNC(=O)c1cc(NC(=O)CCCCl)ccc1N1CCc2ccccc2C1`, 2.17%. The same measure for `COc1cc(-c2nc(-c3ccccc3)c(-c3cccc(C(F)(F)F)c3)[nH]2)cc(OC)c1O`: 4.71%. The compound `COc1ccc(C2C(C(=O)OC3CCCC3)=C(C)NC3=C2C(=O)CC(C)(C)C3)cc1Br` (stereo unspecified) returned an IFI of 2.27%. The same measure for `COc1ccc(-n2nc3c(c2NC(=O)/C=C\c2cc(OC)c(OC)c(OC)c2)CSC3)cc1`: 3.53%; for `c1ccc(-c2nn(-c3ccccc3)[n+](-c3cccc4ccccc34)n2)cc1`: 14.3%; for `CCCCCC(=O)Oc1ccccc1-c1nc2ccccn2c1NC(C)(C)CC(C)(C)C`: 2.86%. Take `Cc1nc(-c2nc3c(s2)CN(C(=O)c2ccncc2)CC3)cs1`: the IFI is 5.56%. The same measure for `CCN1C(=Cc2ccc3c4ccoc4ccc3[n+]2CC)C=Cc2c1ccc1occc21`: 28.6%. As to `O=C(NC1CCN(CC(O)CN(Cc2ccccc2)S(=O)(=O)c2ccccc2)C1)c1ccsc1` (stereo unspecified), the IFI stood at 1.91%. Compound `COc1ccc(-c2nc(NC(=O)CS(=O)(=O)c3ccccc3)sc2C)cc1` yielded an IFI of 0%. The same measure for `Fc1ccc(Nc2nc(NCC3CCCO3)c3ccccc3n2)cc1` (stereo unspecified): 0%; for `COc1ccc(N2C(=O)/C(=C3/C(=O)Nc4ccc(F)cc43)SC2=S)c(OC)c1`: 0%; for `CCN(CC)CCCNC(=S)N(Cc1ccc(F)cc1)Cc1cc2cc(C)cc(C)c2[nH]c1=O`: 11.7%. The same measure for `CN(CCCNc1ccnc2cc(Cl)ccc12)C(=O)/C=C/c1ccccc1`: 0.935%; for `Cn1c(C(C#N)C(=S)NC2CCCCC2)nc2cccnc21` (stereo unspecified): 7.14%. For `CN(CCCNc1ccnc2cc(Cl)ccc12)C(=O)C1CCC1` the value was 3.7%; for `COc1ccc(CCN2CC(CNC(=O)Cc3cccnc3)C(c3ccc(N(C)C)cc3)C2)cc1OC` (stereo unspecified), 4.29%. `CN(C)C=Nc1nn(C)cc1C(=O)Nc1ccc(F)c(Cl)c1`: the IFI came to 0.82%. Regarding `CC(=NO)c1ccc2c(c1)C(C)(C)CCC2(C)C`, the IFI came to 4.17%. Take `CC(=O)Nc1cc(C(F)(F)F)cc(C(F)(F)F)c1`: the IFI came to 0%. The same measure for `O=C(NCCc1ccccc1)c1cnc(NCCCN2CCCC2)nc1Nc1ccccc1`: 0.962%. For `COc1c([N+](=O)[O-])cc2c(c1Br)OC1(C=C2)N(C)c2ccccc2C1(C)C` (stereo unspecified) the value was 0%. The same measure for `CCOc1ccc(N(CC)S(=O)(=O)c2cc(Br)cc3c2N(C(C)=O)CC3)cc1`: 0%; for `COc1ccc(CNc2cc(-c3ccc(F)c(F)c3)nc3ccnn23)cc1`: 3.03%. On to `CCOC(=O)c1c(NC(=O)CSc2nnc(CNC(=O)c3cccc(C)c3)n2-c2cccc(C)c2)sc2c1CCC2`, for which the IFI was 2.33%. For `COc1ccccc1NC(=O)N1CCN(C(=O)c2nc(-c3ccccc3)nc(C)c2C(=O)OC(C)C)CC1C` (stereo unspecified) the value was 0.943%. In turn, `CCOC(=O)CCC(=O)Oc1cc(C(C)(C)C)nn1-c1ccc(Cl)c(Cl)c1` displayed an IFI of 6.36%.

Regarding `CC(CCc1ccccc1)N1CC(c2cccc([N+](=O)[O-])c2)OC1=S` (stereo unspecified), the IFI was 0%.

Compound `CCN(CC)CCCC(C)Nc1ccnc2cc(Cl)ccc12` (stereo unspecified) had an IFI of 1.16%. As to `CCCCN1C(=O)/C(=C2/Sc3ccccc3N2C)SC1=Nc1cc(C)ccc1C`, the IFI amounted to 0%. The same measure for `CCOc1cc([N+](=O)[O-])cc(C=Nc2cccc(NC(=O)c3ccco3)c2)c1O`: 7.14%; for `C#CC[N+]1(CC#Cc2cccc3ccccc23)CCCCC1`: 3.64%. For `COc1cc(C=NNC(=O)Cc2nnc(N)s2)ccc1O` the value was 7.69%; for `OC(CN1CCN(C2c3ccccc3-c3ccccc32)CC1)Cn1c2ccc(Br)cc2c2cc(Br)ccc21` (stereo unspecified), 1.51%; for `COc1ccc(C2CC(=O)C3=C(C2)NC(C)=C(C(=O)OC2CCCC2)C3c2ccc(F)cc2)cc1` (stereo unspecified), 3.49%. The same measure for `Cc1ccc(Cn2c(N3CCC(C(=O)NCc4cccs4)CC3)nc3ccccc32)cc1`: 2.7%; for `c1ccc([Si]2(c3ccccc3)N[Si](c3ccccc3)(c3ccccc3)N[Si](c3ccccc3)(c3ccccc3)N2)cc1`: 1.98%; for `CC1=NN(c2ccc(C(=O)O)cc2)C(=O)/C1=C\c1ccc([N+](=O)[O-])o1`: 4.76%.

The compound `O=C(CSc1ccc2nnc(-c3cccc(F)c3)n2n1)Nc1ccc2c(c1)OCO2` came in with an IFI of 0%. For `CC(C)COc1nc(-c2ccccc2)n(S(=O)(=O)c2cccc3cccnc23)n1` the value was 4.17%. The same measure for `CC(C)CNC(=O)c1cnc(NCCCN2CCCCC2C)nc1NCC1CCCCC1` (stereo unspecified): 2.88%. For `COC(=O)C1=CNC=C(C(=O)OC)C1c1cc(OC)c(OC)cc1OC` the value was 4.88%; for `CCC(c1nc2ccccc2c(=O)n1-c1cccc(C)c1)N(CCc1ccccc1)C(=O)Nc1c(C(C)C)cccc1C(C)C` (stereo unspecified), 0.943%. As to `COc1cc(-c2cc(C)c3c(OC)ccc(OC)c3n2)cc2c1OCCN(C(=O)CCn1nc(C)cc1C)C2`, the IFI came out at 12.5%.

For `COc1ccc(-n2nc(C(=O)NCCC3=CCCCC3)c3ccccc3c2=O)cc1`, the IFI is 3.57%.

Consider `CN(C)CCNCc1cc(-c2ccnc3cc(Cl)ccc23)ccc1O`, for which the IFI was 1.75%. The same measure for `Cn1nc(C(F)(F)F)c(C(=O)Nc2cccc(C(F)(F)F)c2)c1SCc1ccc(Cl)cc1`: 2.53%; for `O=C(/C=C/c1ccccc1)Nc1ccc(C(=O)OC[C@@H]2CCCN3CCCC[C@H]23)cc1`: 0%; for `COc1ccc2c(c1)-c1c(ssc1=S)C(C)(C)N2C(=O)c1ccccc1F`: 0%.

Compound `O=[N+]([O-])c1ccc(N2CCN(C(=S)Nc3ccccc3)CC2)cc1` returned an IFI of 0%. `COc1ccc(-c2n(C)c3ccccc3[n+]2CC(=O)OC2CC(C)CCC2C(C)C)cc1` (stereo unspecified) returned an IFI of 22.7%. The same measure for `COc1ccccc1N1CCN(C(=O)Nc2ccc3ccccc3c2)CC1`: 0%; for `CCCCCCn1c2c(c(=N)c3ccccc31)CCC2`: 7.14%; for `CCNc1nc(NC(C)CC)nc(ON=C(C)C)n1` (stereo unspecified): 0%. `CCCc1c(C)nc2ccc(Br)cc2c1O` had an IFI of 3.03%. The same measure for `C=CCSc1nc(N)c2c3c(sc2n1)CN(CCC)CC3`: 14%. Compound `CCOC(=O)C1=C(C)NC2=C(C(=O)CC(c3ccc(OC)c(OC)c3)C2)C1c1cccc(C)c1` (stereo unspecified) showed an IFI of 8.75%.
